# Whole data set: some 110,000 compounds, median “z-score” near -0.1, cut for the highest 2% near 2. This is one part of the list. Calls of active or inactive are those of the source.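 The calls were made as follows: active = z-score in the third read window above 3 or below -3; inactive = the rest.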
# Target: Metabotropic glutamate receptor 8 (Rattus norvegicus) (UniProt P70579)
# Test: mGluR8 Gi/Go-coupled signaling modulation – cell-based, rat, thallium flux, HTS, primary screen (AID 488969)
# Details: HEK293 rat mGluR8, GIRK (G protein-gated inwardly rectifying potassium channel) thallium flux, FluoZin2; at 10 µM; stronger effect = higher value; submaximal glutamate (EC20) added with thallium
# Sequence of UniProt P70579 (P70579 whole entry, looked up): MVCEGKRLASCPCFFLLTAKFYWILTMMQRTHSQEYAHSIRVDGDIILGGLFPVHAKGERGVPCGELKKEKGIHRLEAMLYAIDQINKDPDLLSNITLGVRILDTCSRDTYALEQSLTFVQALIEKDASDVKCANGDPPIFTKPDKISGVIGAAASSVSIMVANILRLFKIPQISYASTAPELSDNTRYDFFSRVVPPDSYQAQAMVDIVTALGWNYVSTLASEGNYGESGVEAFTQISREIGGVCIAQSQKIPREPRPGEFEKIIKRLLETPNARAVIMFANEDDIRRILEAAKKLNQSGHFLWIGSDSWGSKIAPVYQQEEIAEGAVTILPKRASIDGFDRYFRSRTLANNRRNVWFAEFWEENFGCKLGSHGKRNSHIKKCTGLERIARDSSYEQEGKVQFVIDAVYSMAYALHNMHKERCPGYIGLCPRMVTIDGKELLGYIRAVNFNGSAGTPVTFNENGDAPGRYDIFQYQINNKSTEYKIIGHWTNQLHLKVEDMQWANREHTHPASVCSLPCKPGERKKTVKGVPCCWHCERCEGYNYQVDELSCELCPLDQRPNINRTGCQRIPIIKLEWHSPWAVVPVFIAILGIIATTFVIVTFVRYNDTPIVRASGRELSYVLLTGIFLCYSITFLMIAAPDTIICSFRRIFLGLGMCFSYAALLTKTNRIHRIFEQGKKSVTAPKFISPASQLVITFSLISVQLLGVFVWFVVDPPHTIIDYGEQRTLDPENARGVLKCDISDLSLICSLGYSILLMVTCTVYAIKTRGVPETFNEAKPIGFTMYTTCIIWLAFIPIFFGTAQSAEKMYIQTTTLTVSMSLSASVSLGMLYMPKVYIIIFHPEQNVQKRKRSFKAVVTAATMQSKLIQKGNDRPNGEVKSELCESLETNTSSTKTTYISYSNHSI
row,SMILES,z-score
1,COc1ccc(-n2cc(C(=O)c3cc4ccccc4oc3=O)c(C(C)=O)n2)cc1,0.0849
2,CC1COC2C(O1)N(S(C)(=O)=O)CCN2S(C)(=O)=O (stereo unspecified),0.224
3,Cc1nn(-c2ccccc2)c2c1C1(C(=O)N(C)c3ccccc31)N(c1ccccc1)C(=O)N2 (stereo unspecified),1.25
4,CNC(=O)N(C1=NCC(C)(C)S1)c1ccc(F)c(Cl)c1,-0.111
5,CCCCCCC(=O)NNC(=O)CC(=O)Nc1ccccc1C(=O)O,-0.284
6,C/C(=N\NC(=O)CSc1nc2nc(C)cc(C)n2n1)c1ccccc1,0.413
7,COc1ccc(-c2nc(S(=O)(=O)c3ccc(C)cc3)c(N3CCCC3)o2)cc1,-0.0607
8,O=C(c1cc2ccccc2o1)N1CCN=C1SCc1cccnc1,-0.23
9,COCc1cc(C)nc(SCC(=O)N2CCC(C)CC2)c1C#N,0.67
10,COc1ccc(S(=O)(=O)N(C)CC(=O)Nc2c(F)cccc2F)cc1,-0.0769
11,Cn1c(/C=N/n2cnnc2)nc2ccccc21,0.176
12,Cc1nc(N2CCN(c3ccccc3)CC2)[nH]c(=O)c1Cc1cccc2ccccc12,-0.228
13,CCOC(=O)c1ccc(Oc2nc(NC)nc(OC)n2)cc1,-0.524
14,O=C(O)c1ccccc1SCc1cn2ccccc2n1,0.0786
15,COc1ccccc1CC(=O)Nc1ccc(-c2noc(COc3cccc(C)c3C)n2)cc1,-0.394
16,COc1ccc(S(=O)(=O)N2CCSC2)cc1C,-0.243
17,Nc1c(-c2ccc(F)cc2)cnn1C1CCS(=O)(=O)C1 (stereo unspecified),-0.0127
18,CN(C)C(=O)c1ccc2c(c1[N+](=O)[O-])C(=O)c1ccccc1C2=O,0.185
19,N#Cc1c(NC(=O)CSc2ncn[nH]2)sc2c1CCCC2,-0.387
20,CCC(=O)N1CCc2cc(S(=O)(=O)Nc3ccc4c(c3)OCCO4)ccc21,-0.208
21,COc1ccc(-c2nnc3c4ccccc4c(C)nn23)cc1,-0.545
22,CCOC(=O)C1CCCN(c2c(N3CCOCC3)c(=O)c2=O)C1 (stereo unspecified),0.314

row,SMILES,z-score
1,O=C(COc1ccc(S(=O)(=O)NC2CCCCC2)cc1)NCc1cccnc1,-0.589
2,COC(=O)CN(Cc1ccccc1)S(=O)(=O)c1ccc(OC)c(OC)c1,-0.621
3,COc1cccc(C(=O)N/N=C/c2ccc(Oc3ccc([N+](=O)[O-])cn3)c(OC)c2)c1,0.235
4,CC(=O)Oc1cccc(N2C(=O)c3ccccc3C2=O)c1,0.0143
5,CCCc1[nH]nc2c1C1(C(=O)N(CC)c3ccccc31)C(C#N)=C(N)O2 (stereo unspecified),-0.625
6,CCOc1ccc2nc(NC(=O)C(CC)Sc3nc(C)cc(=O)[nH]3)sc2c1 (stereo unspecified),active: -5.76
7,COCC(=O)n1cc(C(=O)OC)c2ccccc21,0.219
8,CCOC(=O)c1[nH]c2ccc(C)cc2c1N=CN(CC)CC,0.273
9,CCCc1ccc(-c2cc(NC(=O)CSc3nnc(N)s3)n(-c3ccccc3)n2)cc1,0.28
10,COc1ccc(N=C2C(=Nc3ccc(OC)cc3)N(c3ccccc3)C(=S)N2C(=O)c2ccc(Cl)cc2)cc1,0.0583
11,CCOC(=O)c1c(C)nc2sc3c(=O)n(-c4ccc(OC)cc4)nnc3c2c1-c1ccc(OC)cc1,0.0499
12,CC(=O)OC[C@H]1O[C@@H](Sc2cccc3cccnc23)[C@H](OC(C)=O)[C@@H](OC(C)=O)[C@@H]1OC(C)=O,-0.316
13,COC(=O)[C@@H]1C(c2ccccc2)(c2ccccc2)[C@@]1(C)C(=O)OC,-0.368
14,CCOCCCn1c(SCC(=O)NCc2ccco2)nc2c(sc3ccccc32)c1=O,-0.0769
15,Cc1ccc2[nH]c(C)c(/C=N/Nc3nc4ccccc4s3)c2c1,-0.0958
16,CN(CC(=O)N1CCN(C2CCCCC2)CC1)S(=O)(=O)c1cccc2nsnc12,-0.124
17,CC(C)(C)NC(=O)COc1ccc(-c2ccccc2)cc1,-0.142
18,CC(=O)/C(=N/Nc1cccc(Cl)c1)Sc1nnc(C(O)c2ccccc2)n1-c1ccccc1 (stereo unspecified),-0.12
19,COc1cccc(/C=N/NC(=O)CC2C(=O)NN=C2C)c1OC (stereo unspecified),0.0513
20,Cc1c(NC(=O)c2cc3ccccc3o2)c(=O)n(-c2ccccc2)n1C,-0.138
21,CCCCc1ccc(CC2S/C(=C(\C#N)C(=O)N3CCOCC3)N(c3ccccc3)C2=O)cc1 (stereo unspecified),1.87
22,O=C(NC1(C(F)(F)F)C(=O)Nc2c1c(=O)[nH]c(=O)n2Cc1ccccc1)c1ccco1 (stereo unspecified),0.311

row,SMILES,z-score
1,Cc1c(NC(=S)N/N=C/c2ccc(O)cc2)c(=O)n(-c2ccccc2)n1C,-0.645
2,COc1ccc(OC)c(C(=O)/C=C/c2ccccc2C(F)(F)F)c1,-0.398
3,CC(NC(=O)NC12CC3CC(CC(C3)C1)C2)C1CCCO1 (stereo unspecified),0.288
4,COc1ccc(CC(=O)Nc2nncs2)cc1OC,0.63
5,COC(=O)c1ccc(Oc2coc3cc(OCc4ccc([N+](=O)[O-])cc4)ccc3c2=O)cc1,-0.193
6,O=C(NCc1cccc(C(F)(F)F)c1)C1CC(c2ccccc2[N+](=O)[O-])=NO1 (stereo unspecified),-0.278
7,O=C(COC(=O)CCc1ccc(S(=O)(=O)N2CCOCC2)cc1)Nc1ccc(Cl)cn1,-1.8
8,CCOC(=O)c1ccc(NC(=O)NC(C)C2CCCO2)cc1 (stereo unspecified),1.07
9,COC(=O)c1ccccc1NC(=O)CSc1nnc(COc2cccc(OC)c2)n1C,-0.936
10,COc1ccc(C(=O)n2nc(C)c(Br)c2C)cc1,0.201
11,CC(C)CN1C(=S)SC(C)(C)C1n1oc(=O)n(-c2ccc(Cl)cc2)c1=O (stereo unspecified),-0.00187
12,COc1ccc(OCC(=O)Nc2cc(-c3nn4c(C)nnc4s3)ccc2C)cc1,0.131
13,COc1ccc(NC(=S)NCCCn2ccnc2)cc1,0.26
14,CC(=O)Nc1nnc(SCC(=O)NC(C)(C)C)s1,1.38
15,CC(C)CNC(=O)c1cccc(NC(=O)c2ccc(Cl)c([N+](=O)[O-])c2)c1,-0.478
16,Cn1c(CN2CCOCC2)nnc1SCC(=O)Nc1ccc2c(c1)OCCO2,-0.0895
17,O=C1NC(c2ccccc2)C(C(=O)c2cccs2)C(O)(C(F)(F)F)N1 (stereo unspecified),-0.23
18,CC1=NN(C(=O)c2ccccc2-n2cccc2)C(O)(C(F)(F)F)C1 (stereo unspecified),-0.142
19,Cc1sc(NC(=O)/C=C/C(=O)O)c(C(N)=O)c1-c1ccc(C(C)(C)C)cc1,-0.897
20,COC(=O)C1C2CCC(C2)C1C(=O)OCC(=O)c1ccccc1 (stereo unspecified),0.411
21,Cc1ccc(C(=O)N/C(=C\c2ccc(F)cc2)C(=O)NCc2ccncc2)cc1,-0.00567
22,CC1CCc2cc(F)ccc2N1C(=O)c1cnc2sccn2c1=O (stereo unspecified),0.115
